Laboratory results reported in patent US5519115A, “Reverse antimicrobial peptides” (priority 1993, dated 1996).
At least one peptide structure holds a part that was inferred or is arguable (an end, a ring closure or a residue). Some compounds share one wording; it may come from a single statement. Ends that are not written are not given here.

What was measured:
[1] = tested on: Erwinia carotovora carotovora strain SR319 (Ecc SR319); test: Antibacterial bioassay (MCIC); type: cell-based; settings: for MCIC Values (Ecc SR319): mean after 20 hours of treatment, at least three replicate experiments; for activity against Ecc SR319 compared with parent monomers (in words): tested at equivalent microgram per mL quantities, parent monomers Pep Nos. 1, 2, 4, and 12; for activity against fungi compared with activity against Ecc SR319 (in words): comparison of Tables II and III
Experimental: Erwinia carotovora carotovora strain SR319 (Ecc SR319) (a gift of Dr. C. H. Liao, USDA-ARS, Philadelphia, Pa.) was streaked on a plate of Luria-Bertani ("LB") broth agar and grown overnight at 28° C. After 24 hours, a loopful of Ecc SR319 was picked from the agar plate and was added to 3 ml of LB broth (10 g Bacto-tryptone, 5 g Bacto-yeast extract, and 10 g sodium chloride per liter of solution; autoclaved sterile) in a capped sterile 10 ml test tube. This culture was grown overnight before its optical density at 630 nm was recorded using a Dynatech MR 600 microplate reader (Dynatech Laboratories, Inc., Alexandria, Va.). A portion of the overnight culture was adjusted with Luria broth to obtain a culture with an optical density at 630 nm of 0.2. About 250 microliters of this culture was added to 2250 microliters of Luria broth in a capped, sterile 10 ml test tube before this diluted culture was grown for 3-4 hours at 28° C. in a shaking incubator until the optical density of the freshly grown culture at 630 nm reached 0.2. A portion of this mid-logarithmic growth phase culture was diluted 1000-fold with Luria broth to an approximate concentration of about 10^5 colony forming units per ml of culture. About 85 microliters of this diluted culture were added to each well in a 96 well microtiter plate with three replicate sets of 12 wells prepared for each AMPPP within a single experiment. Stock solutions of each AMPPP were prepared at a concentration of 1 mg/ml and 1-15 microliters of each peptide stock solution were added to a single well in the microtiter plate followed by a sufficient volume of water to bring the total well volume to 100 microliters. Typical peptide volumes assayed were 0, 1, 2, 3, 4, 5, 6, 7, 8, 9, 10, and 15 microliters, which corresponds to a final peptide concentration in the range of 0-150 micrograms per ml. The microtiter plates were sealed with parafilm and incubated on a shaking platform at 28° C. for 44 hours. The optical density of each Ecc SR319 culture well was recorded at 20 hours and then at 44 hours. A minimum complete inhibitory concentration (MCIC) was then determined for each replicate set of varying peptide concentrations at which no bacterial growth was observed. Table III lists mean MCIC values (stated as micrograms per mL) observed after 20 hours of treatment from at least three replicate experiments with each AMPPP. The AMPPPs tested were prepared or obtained as described in Examples 1-5, 7, 9, 10, 12, 14 and 15.

[2] = tested on: Helminthosporium carbonum; test: Antifungal bioassay (MCIC, spore germination); type: cell-based; settings: mean after 24 hours of treatment
Experimental: (§1) Fungi were grown on an appropriate medium, in this case a potato dextrose agar plate, for several weeks. At the end of that period, the plate was flooded with about 5 mL of sterile distilled water to harvest spores. The spore concentration was determined by use of a hemocytometer and the spore suspension was stored in a sterile tube at 4° C. until it was needed. Then 82 microliters of potato dextrose broth and 3 microliters of spore suspension (ranging from 10^5 to 10^7 spores total) were added to 12 wells in a 96 well microtiter plate for each AMPPP to be tested, with 1-4 replicate sets of 12 wells prepared for each AMPPP within a single experiment. In several instances, more than one spore concentration was used in order to determine the efficacy of certain AMPPPs as a function of the number of target spores. Stock solutions of each AMPPP were prepared at a concentration of 1 mg/mL and 0-15 microliters of each peptide stock solution were added to a single well in the microtiter plate followed by a sufficient volume of water to bring the total well volume to 100 microliters. […] Typical peptide volumes assayed were 0, 1, 2, 3, 4, 5, 6, 7, 8, 9, 10, and 15 microliters, which corresponds to a final peptide concentration in the range of 0-150 micrograms/mL. The microtiter plates were sealed with parafilm and incubated at room temperature for 48 hours. The fungal growth was observed after 24 and 48 hours by microscope using a 4× and/or a 10× objective lens. The amount of spore germination and fungal growth was recorded as a quantitative measurement at each observation time using a system of pluses and minuses: [-] meant no germination having occurred, [+] meant swollen spores with an extended germ tube, [++] meant the beginnings of mycelial growth with the overall appearance of a loose lattice, and [+++] meant a dense mycelial growth with the overall appearance of a thick opaque meshwork. The MCIC value for each AMPPP tested was then recorded, where the MCIC value is defined as the lowest peptide concentration at which no spore germination occurred (rating=[-]). Table II lists mean MCIC values (stated as micrograms per mL) computed after 24 hours of treatment from at least three replicates with each AMPPP for each of two or three plant pathogenic fungi tested: P3 Fusarium (field isolate), Trichoderma reesei (a gift of Dr. John Ellis, USDA-ARS, Peoria, Ill.) Cercospora sp. (a gift of Dr. James Hawk, University of Delaware, Newark, Del.) and Helminthosporium carbonum.

Cercospora sp. = test: Antifungal bioassay (MCIC, spore germination); type: cell-based; settings: 10^6 spores/test; mean after 24 hours of treatment
Experimental: as §1

Trichoderma reesei = test: Antifungal bioassay (MCIC, spore germination); type: cell-based; settings: 10^6 spores/test; mean after 24 hours of treatment
Experimental: as §1

Ecc SR319 = test: Complementary mixture antibacterial bioassay; type: cell-based, Erwinia carotovora carotovora; settings: Peptide No. 1 20 micrograms/mL, Peptide No. 4 0

Substance | MCIC Values (Ecc SR319) [1] | activity against Ecc SR319 compared with parent monomers (in words) [1] | MCIC Values With: Helminthosporium carbonum ([2]; 10^6 spores/test) | MCIC Values With: Cercospora sp. (Cercospora sp.) | MCIC Values With: Trichoderma reesei (Trichoderma reesei) | MCIC Values With: Helminthosporium carbonum ([2]; *10^5 spores/test) | concentration at which not active against Ecc SR319 [1] | activity against fungi compared with activity against Ecc SR319 (in words) [1] | minimum complete inhibitory concentration against Erwinia carotovora carotovora ([1]; text of summary) | Degree of Inhibition of Bacterial Inoculum Growth (Ecc SR319)
GIGKFLHSAKKFGKAFVGEIMNSGIGKFLHSAKKFGKAFVGEIMNS [Peptide No. 5, (Mag 2)-(Mag 2)] | 17 +/- 6 micrograms per mL | better activity than at least one of the parent monomers | 85+/-0 micrograms per mL |  |  |  |  |  |  | 
CGIGKFLREAGKFGKAFVGEIMKP [Peptide No. 13, Cys [Arg 7, Glu 8, Pro 23] Mag 1] | 33 +/- 5 micrograms per mL |  | 37+/-15 micrograms per mL | 26+/-6 micrograms per mL | 13+/-5 micrograms per mL |  |  |  |  | 
GIGKFLHSAKKFGKAFVGEIMNSGGGGGGIGKFLHSAKKFGKAFVGEIMNS [Peptide No. 6, Mag 2 dimer (bridged)] | 23 +/- 6 micrograms per mL | better activity than at least one of the parent monomers |  |  |  |  |  |  |  | 
KWKLFKKIEKVGQNIRDGIIKAGPAVAVVGQATQIAK-NH2 [Peptide No. 3, Cecropin A-NH2, reference compound] | 5 +/- 0 micrograms per mL |  |  | 45+/-6 micrograms per mL | 20+/-0 micrograms per mL | 20+/-0 micrograms per mL |  |  |  | 
SGIGKFLHSAKKFGKAFVGEIMNS [Peptide No. 19, Ser-Magainin 2] | 30 +/- 10 micrograms per mL |  |  |  | 75 micrograms per mL |  |  |  |  | 
SNMIEGVFAKGFKKASHLFKGIG [Peptide No. 8, Reverse Magainin 2] | Greater than 150 micrograms per mL |  | 65+/-6 micrograms per mL | 68+/-21 micrograms per mL | 38+/-5 micrograms per mL |  | higher than 150 micrograms of peptide per milliliter | much more active against fungi than against Ecc SR319 |  | 
SKMIEGVFAKGFKGASHLFKGIG [compound 18, Reverse Magainin 1] | Greater than 150 micrograms per mL |  | 150+/-0 micrograms per mL |  | 88+/-5 micrograms per mL |  | higher than 150 micrograms of peptide per milliliter | much more active against fungi than against Ecc SR319 |  | 
GIGKFLHEAKKFGKAFVGEIMNS [Peptide No. 10, [Glu 8] Mag 2] |  |  |  |  |  |  |  |  | greater than 150 ug/mL | 
MGIGKFLREAGKFGKAFVGEIMKGIGKFLREAGKFGKAFVGEIMKP [Peptide No. 15, Head-to-tail peptide Nos. 11 and 12***] | Greater than 150 micrograms per mL |  | 150+/-0 micrograms per mL |  | 73+/-5 micrograms per mL |  | higher than 150 micrograms of peptide per milliliter | much more active against fungi than against Ecc SR319 |  | 
GIGKFLHSAGKFGKAFVGEIMKS [Peptide No. 2, Magainin 1, reference compound] | 80 +/- 0 micrograms per mL |  |  | 20+/-0 micrograms per mL | 35+/-6 micrograms per mL | 15+/-6 micrograms per mL |  |  |  | 
GIGKFLHSAKKFGKAFVGEIMNS [Peptide No. 1, Magainin 2] | 50 +/- 5 micrograms per mL |  |  | 29+/-5 micrograms per mL | 35+/-6 micrograms per mL | 20+/-0 micrograms per mL |  |  |  | 19%
GMASKAGAIAGKIAKVALKAL [Peptide No. 7, PGL^c] | Greater than 150 micrograms per mL |  | 35+/-6 micrograms per mL | 35+/-6 micrograms per mL | 40+/-0 micrograms per mL |  | higher than 150 micrograms of peptide per milliliter | much more active against fungi than against Ecc SR319 |  | 
